Experimental data reported in PMC9997487 (Biochemistry, 2023).

Molecular target: T1, Human DJ-1, wild type (human, UniProt Q99497 1-189, N-terminal Ser instead of Met)
T1 sequence: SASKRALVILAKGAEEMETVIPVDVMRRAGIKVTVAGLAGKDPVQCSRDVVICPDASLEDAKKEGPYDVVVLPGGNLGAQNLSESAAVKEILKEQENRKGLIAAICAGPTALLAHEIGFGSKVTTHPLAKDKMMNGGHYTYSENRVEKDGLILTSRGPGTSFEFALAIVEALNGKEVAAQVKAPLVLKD
Assay: NMR titration

B1: Tau deletion mutant A2_P251del L376_L441del (Δ4R construct) (domain or fragment)
chain: not shown
modifications: 15N-labelled
**Q.** Does B1 bind?
**A.** binds
